# Laboratory results: PubChem BioAssay AID488969 (Vanderbilt High Throughput Screening Facility, 2010)
# Whole data set: some 110,000 compounds, median “z-score” near -0.1, cut for the highest 2% near 2. The list shows a part of the results.
# Molecular target: Metabotropic glutamate receptor 8 (Rattus norvegicus) (UniProt P70579)
# Assay: mGluR8 Gi/Go-coupled signaling modulation – cell-based, rat, thallium flux, HTS, primary screen (AID 488969)
# Conditions: HEK293 rat mGluR8, GIRK (G protein-gated inwardly rectifying potassium channel) thallium flux, FluoZin2; at 10 µM; stronger effect = higher value; submaximal glutamate (EC20) added with thallium
# UniProt P70579, sequence (P70579 whole entry, looked up): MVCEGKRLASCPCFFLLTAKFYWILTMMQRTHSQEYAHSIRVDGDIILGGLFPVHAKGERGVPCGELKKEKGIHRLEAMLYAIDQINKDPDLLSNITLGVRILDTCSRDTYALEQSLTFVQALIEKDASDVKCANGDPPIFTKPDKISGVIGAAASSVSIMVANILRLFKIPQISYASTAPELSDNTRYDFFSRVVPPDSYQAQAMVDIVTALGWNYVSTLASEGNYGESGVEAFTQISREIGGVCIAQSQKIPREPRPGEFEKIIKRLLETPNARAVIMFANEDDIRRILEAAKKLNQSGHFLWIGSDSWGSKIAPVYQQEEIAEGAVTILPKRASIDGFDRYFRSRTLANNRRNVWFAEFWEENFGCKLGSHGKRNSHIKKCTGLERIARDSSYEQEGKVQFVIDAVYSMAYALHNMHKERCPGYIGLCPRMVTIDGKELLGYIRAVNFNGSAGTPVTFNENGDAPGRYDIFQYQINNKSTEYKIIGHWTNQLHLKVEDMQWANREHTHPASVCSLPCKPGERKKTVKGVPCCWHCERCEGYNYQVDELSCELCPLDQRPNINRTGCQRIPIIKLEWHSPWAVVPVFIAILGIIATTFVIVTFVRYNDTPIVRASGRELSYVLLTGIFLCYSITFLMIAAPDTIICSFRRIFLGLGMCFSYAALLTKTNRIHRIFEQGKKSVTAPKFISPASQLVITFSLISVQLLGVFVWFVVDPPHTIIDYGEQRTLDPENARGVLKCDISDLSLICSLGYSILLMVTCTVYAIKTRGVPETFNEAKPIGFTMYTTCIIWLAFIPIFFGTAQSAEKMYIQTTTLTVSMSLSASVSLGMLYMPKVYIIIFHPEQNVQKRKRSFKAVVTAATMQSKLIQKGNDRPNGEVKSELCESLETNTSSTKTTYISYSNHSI
row,SMILES,z-score
1,Cc1ccc(C(C)C)c(OCCN(C)C)c1,0.47
2,Cc1cc(C(F)F)nn1CC(=O)N1CCSCC1,0.0304
3,CC(=O)/C(=N/Nc1ccccc1Cl)Sc1nnc(C(O)c2ccccc2)n1-c1ccccc1 (stereo unspecified),0.00854
4,CCC(C)/C(C)=N/NC(=O)c1ccc(CSc2nc3ccccc3s2)cc1 (stereo unspecified),-0.291
5,Cc1nn(Cc2cccc(C(=O)NC3CCCCC3)c2)c(C)c1Cl,-1.03
6,Cc1ccc(NC(=O)C2C3/C=C\CCCCC32)cc1C (stereo unspecified),0.153
7,O=C(Nc1nnc(-c2ccccc2)s1)c1cccc(S(=O)(=O)N2CCOCC2)c1,-0.0335
8,CC(C)CN1C(=O)c2ccc(C(=O)NCc3ccc4c(c3)OCO4)cc2C1=O,0.0583
9,CCc1ccc(NC(=O)C(=O)c2cn(CC(=O)N3CCCCC3)c3ccccc23)cc1,0.121
10,CSc1ncc2c(n1)-c1cc(C)ccc1SC2,-0.152
11,Cc1cc(Cl)ccc1OCCCC(=O)N/N=C/c1cccc([N+](=O)[O-])c1,-0.0451
12,CCn1nnc(NC(=O)c2cc(Cl)c(OC)c(Cl)c2)n1,0.078
13,Cc1ccccc1NC(=O)/C(=C/c1cccs1)NC(=O)c1ccco1,-0.146
14,CN(C)S(=O)(=O)c1ccc(S(=O)(=O)Nc2ccc3c(c2)oc2ccccc23)cc1,0.0572
15,Cc1ccc(-c2nnc(-c3ccccc3S(=O)(=O)Cc3ccc(Cl)cc3)o2)cc1,0.0583
16,CC(C)/C=C1\CCCCC1N(C)C(=O)NC(C)C (stereo unspecified),-0.373
17,CC(=O)C1=C(C)Nc2cc(C(F)(F)F)ccc2S1,-0.36
18,O=C(Cn1ccc2ccccc2c1=O)Nc1ccc2c(c1)OCO2,0.362
19,O=C1N=C(c2ccccc2)S/C1=C\c1cccs1,2.92
20,Cc1cc(C)nc(Nc2n[nH]c(COc3ccc4ccccc4c3)n2)n1,0.0803
21,CC(CN1CCOCC1)OC(=O)C(C)(c1ccccc1)c1ccccc1 (stereo unspecified),0.383
22,Cn1ccnc1SCC(=O)Nc1sccc1C#N,-0.121
23,NC1=NC(=O)/C(=C/c2cccs2)S1,-0.848
24,COc1ccc(Cc2c[nH]c(=O)[nH]c2=O)cc1,-0.218

row,SMILES,z-score
1,O=C(c1cccn(Cc2cccc(Cl)c2)c1=O)N1CCOCC1,0.0735
2,CC(C)NC(=O)CN1C(=O)C(=O)c2ccccc21,0.102
3,Cc1ccc(/C=C/C(=O)c2nc3ccccc3[nH]2)cc1,-0.981
4,Cc1cccc(N(Cc2cc3ccccc3[nH]c2=O)S(=O)(=O)c2ccccc2)c1,0.214
5,O=C(c1ccccc1)c1nc[nH]c1C(=O)Nc1ccccn1,0.0319
6,CCN(C(=O)COC(=O)c1cnc(C)cn1)C1CCCCC1,0.0901
7,Cc1ccc(S(=O)(=O)N2CCN(CC(=O)N/N=C/c3cc([N+](=O)[O-])ccc3Cl)CC2)cc1,-0.567
8,CN(CC(CC(=O)O)c1ccccc1)S(=O)(=O)c1ccc(Br)cc1 (stereo unspecified),0.157
9,CCCCC(=O)Nc1ccc(C(=O)Nc2nc(CC(=O)OCC)cs2)cc1,-0.728
10,OCC1CCCN1C(=S)Nc1ccccc1 (stereo unspecified),-0.00603
11,Cc1ccccc1OCc1nc(-c2ccccc2)no1,-0.372
12,O=C(NCc1ccccc1)C1C2C=CC3(CN(Cc4cccnc4)C(=O)C13)O2 (stereo unspecified),-0.421
13,Cc1cccc(NC(=S)N=Nc2c(O)n(CN3CCOCC3)c3ccccc23)c1C,2.19
14,Oc1ccc(C=Nc2ccccc2-c2nc3ccccc3[nH]2)cc1,-0.054
15,O=C(c1ccc(CN2CCOCC2)cc1)N1CCN(c2cccc(Cl)c2)CC1,-0.224
16,O=C(COc1ccccc1Cl)N1CCN(c2ccc(F)cc2)CC1,0.0431
17,Cc1cccc(C)c1NC(=O)NN(C(=O)c1ccccc1)C(C)(C)C,-0.187
18,O=S(=O)(c1ccccc1F)N1CCN(Cc2nc3ccccc3[nH]2)CC1,-0.29
19,CS(=O)(=O)N1CCc2cc(C(=O)N3CCOCC3)ccc21,0.263
20,OC(CNCCC1C=Nc2ccccc21)Cn1c2ccc(Cl)cc2c2cc(Cl)ccc21 (stereo unspecified),0.025
21,O=C(c1ccco1)N1N=C(c2cccs2)CC1c1ccc(F)cc1 (stereo unspecified),-1.59
22,COc1ccc(Nc2nc(Cl)nc(NCc3ccco3)n2)cc1,-0.0731
23,Cc1cc(C(=O)N2CCN(Cc3ccccc3)CC2)on1,-0.49
24,CN(C)c1nc(SCc2ccccc2)nc(N2CCOCC2)n1,-0.165

row,SMILES,z-score
1,Fc1ccc(-c2n[nH]c(=S)n2CC2CCCO2)cc1 (stereo unspecified),-0.283
2,CCc1[nH]nc2c1C(Cc1ccccc1)C(C#N)=C(N)O2 (stereo unspecified),0.432
3,COC(=O)c1cc(-c2c(C)nn(-c3ccccc3)c2C)n[nH]1,-0.584
4,COc1ccc(OC)c(NC(=O)CSCc2cnn(-c3ccccc3)c2-n2cccc2)c1,0.126
5,Cc1cc([N+](=O)[O-])nn1CCCC(=O)NC(C)c1ccccc1 (stereo unspecified),-0.317
6,Cn1c(CN2CCN(C(=O)c3ccccc3Cl)CC2)nc2cc([N+](=O)[O-])ccc21,0.11
7,CC1=CC(C)(C)N2C(=O)C3(C(C#N)=C(N)OC4=C3C(=O)CC(C)(C)C4)c3cccc1c32 (stereo unspecified),-0.0955
8,Nc1cc(=O)[nH]c(SCc2ccc(Cl)cc2)n1,0.285
9,COc1ccc(C2NC(C(=O)O)CS2)cc1COCC(F)(F)F (stereo unspecified),-0.34
10,Cc1cc(C(=O)COC(=O)c2ccc(O)cc2)c(C)n1CC1COc2ccccc2O1 (stereo unspecified),-0.372
11,CC(=O)Nc1ccc(NC(=O)CNS(=O)(=O)c2ccc(C)cc2)cc1,0.392
12,NS(=O)(=O)c1cccc(NC(=O)Cn2cnc3ccccc3c2=O)c1,-0.339
13,Cc1ccc2cc(/C=C3\N=C(c4ccccc4)OC3=O)c(N3CCOCC3)nc2c1,-0.314
14,Cc1cc(C)cc(-n2c(SCC(=O)Nc3cccc(S(=O)(=O)NC4=NCCCCC4)c3)nc3ccccc3c2=O)c1,-0.139
15,c1ccc(-n2nnnc2SCc2cn3cccnc3n2)cc1,0.758
16,Cn1c2ccccc2c(=O)n2c(=O)c3ccccc3cc12,-0.405
17,O=C(C[n+]1cc(-c2ccccc2)n2c1CCCCC2)c1ccc(Cl)cc1,0.0753
18,COC(=O)CSc1nc(-c2ccc(F)cc2)cc(C(F)(F)F)n1,0.236
19,Nc1ccc(-c2cc(-c3cccc(N)c3)nc(-c3ccccc3)n2)cc1,-0.0612
20,Cc1ccc(S(=O)(=O)N(C)Cc2nc(-c3ccncc3)no2)cc1,0.177
21,Cn1c(=O)c2c(nc(NCc3ccccc3)n2CCCc2ccccc2)n(C)c1=O,-0.871
22,O=C1C2CC=CCC2C(=O)N1c1ccc(OCC(O)Cn2nnc3ccccc32)cc1 (stereo unspecified),-0.224
23,CCC(=O)N1CCc2cc(S(=O)(=O)NCCCOC)ccc21,-0.216
